This is one part of the list. These are further read-outs of the screen, such as a control signal, another cell line or another target. No call is given for them. The list favours compounds with an active or inconclusive main result.

This experiment is described as follows: growth inhibition of WT strain, primary screen, mitochondrial fusion inhibitor project, WT and mutant strains, chemical genetic (AID 1362). Further: tested in S. cerevisiae. The conditions noted are these: mitochondrial fusion phenotypic screen, at 10 µM.
On to `CSc1ccc(OC2CCCCC2NS(=O)(=O)c2ccc(Cl)cc2)cc1` (stereo not drawn), for which the inhibition was 19.2%.

For the molecule `CC(=O)C(N=Nc1ccccc1)(Sc1nnc(-c2ccccc2)n1-c1ccccc1)C(C)=O`, the inhibition is -12.3%.

Take `S=C1NC(C23CC4CC(CC(C4)C2)C3)=CC(c2ccc3c(c2)OCO3)N1` (stereo not drawn): the inhibition is 12.2%.

Take `CC(O)CNc1nc2sc3c(c2c(=O)n1CCc1ccccc1)CCCCC3` (stereo not drawn): the inhibition worked out at 27.7%.

Take `COc1cccc(NC(=S)N/N=C2\CC3CCC2(C)C3(C)C)c1` (stereo not drawn): the inhibition came to 46%. Take `Cc1ccc(NC2=C/C(=N\S(=O)(=O)c3cccs3)c3ccccc3C2=O)c(C)c1`: the inhibition is 61.4%.

As for `O=[N+]([O-])c1ccc(Oc2cccc3cccnc23)c([N+](=O)[O-])c1`, the inhibition was 47.3%. With `Cc1ccccc1NC(=S)NCc1ccc2[nH]c3c(c2c1)CCCC3`, the inhibition is 55.3%. Consider `Cc1ccccc1C(=O)Nc1nnc(-c2ccc(F)cc2)o1`, for which the inhibition was 61.7%. As to `COc1ccccc1-n1cnnc1SCC(=O)Nc1cc(C(C)(C)C)nn1-c1ccccc1`, the inhibition was determined as 16.2%.

`CCOC(=O)C1CCN(c2c(C(=O)c3ccccc3)cnc3ccc(Cl)cc23)CC1`: the inhibition was found to be 75.1%. Next, `COCCNC(=S)NCCc1ccc(Cl)cc1Cl`: 48.1%. Next, `c1ccc(N/N=C(\Cc2nc3ccccc3[nH]2)c2ccccc2)cc1`: 43.3%; `CCCCCc1ccc(OCCCC[n+]2ccc(C)cc2)c(CCCCC)c1`: 93.9%. Consider `CCOC(=O)c1c(C)[nH]c(C(=O)OCC(=O)Nc2cc(Cl)ccc2OC)c1C`, for which the inhibition is -0.08%. For `Cc1oc(-c2ccccc2F)nc1CN1CCC(C(=O)NCCC2=CCCCC2)CC1` the value was -7.18%; for `CC1CN(Cc2ccccc2)c2ccccc2NC1=S` (stereo not drawn), 29.4%.

For the molecule `Cc1ccc(OCC(=O)c2ccc3c(c2)CCCC3)cc1C`, the inhibition came out at 38.6%. For `COc1ccccc1NC(=S)NNC(=O)c1c(Cl)c(C)nn1C` the value was 7.7%; for `Cc1cc(N2CCN(c3ccccc3Cl)CC2)n2cc(-c3ccccc3)nc2n1`, 47.2%; for `O=C(Nc1nc(-c2cc(Cl)sc2Cl)cs1)c1ccccc1`, 53.4%.

On to `Cc1ccc(SCCNC(=S)Nc2ccc(C)cc2C)cc1`, for which the inhibition was determined as 40.3%.

Regarding `CCn1c(-c2cc(-c3ccc(C)c(C)c3)nc3ccccc23)n[nH]c1=S`, the inhibition was 49.1%. For `N=c1c2c(n(Cc3ccc(Cl)c(Cl)c3)c3c1CCC3)CCCC2` the value was 61.4%; for `Nc1nc2ccc(S(=O)(=O)N3CCCCC3)cc2s1`, 59.9%; for `Cc1ccc(C(=O)Nc2cc(Cl)ccc2N2CCCCC2)s1`, 16.3%. Next, `Clc1ccccc1Cn1c(/C=C/c2ccco2)nc2ccccc21`: 2.67%; `C=CCc1cccc(/C=N/NC(=O)CNc2cccc3ccccc23)c1O`: 56.3%. For `O=C(Nc1ccc([N+](=O)[O-])cc1)Nc1ccc(OC(F)F)c(Cl)c1` the value was 81.1%. For the molecule `CCOC(=O)c1cnc(-n2nc(C)cc2C)nc1NC1CCCCC1`, the inhibition came to 82.3%. Next, `O=[N+]([O-])c1ccc(NC(=S)NCCc2ccc(Cl)cc2)cc1`: 78.2%; `CCOC(=O)N1CCN(CC(O)COC2CC(C)CCC2C(C)C)CC1` (stereo not drawn): -10.5%; `CC1(C)OC(=O)N(c2ccccc2)C12C=Cc1c(ccc3ccccc13)O2` (stereo not drawn): 20.6%. Next, `O=C(Nc1ncc(Br)s1)C(Cc1ccccc1)n1cccc1` (stereo not drawn): 52%; `Fc1cccc(CCN2C(=S)NC[C@@H]2Cc2ccccc2)c1`: 60.1%; `CCCCc1ccc(NC(=S)Nc2ccc(Cl)c(S(=O)(=O)N(C)C)c2)cc1`: 10.1%. Regarding `CC1Cc2ccccc2N1C(=S)NC(=O)c1ccc(Cl)cc1Cl` (stereo not drawn), the inhibition amounted to 59.7%.

In the case of `Cc1cccc(NC(=S)c2nc3ccccc3s2)c1`, the inhibition is 56.9%. For `O=C(Nc1cccc(Cl)c1)C1C2CCC3C(CCC21)C3(Cl)Cl` (stereo not drawn), the inhibition amounted to 45.2%. For `O=C(c1cc(-c2ccc(Cl)cc2)n(-c2ccc(Cl)c(Cl)c2)n1)N1CCOCC1` the value was -8.28%; for `CCNc1nc(NCC)nc(SCCOC(=O)COc2ccc(Cl)cc2Cl)n1`, 49.5%. Next, `CCC(CC)c1nnc(NC(=O)c2ccc3ccccc3n2)s1`: 52.2%; `O=C(Nc1nnc(C2CC2)o1)c1ccc(S(=O)(=O)N2CCCc3ccccc32)cc1`: 20.7%; `O=[N+]([O-])c1cccnc1N1CCC(c2cc(-c3ccc(Cl)cc3)n[nH]2)CC1`: 43.7%. For `C[n+]1c2n(c3ccccc31)N=C(c1cc(C(C)(C)C)c(O)c(C(C)(C)C)c1)CS2` the value was 45.7%. Regarding `Cc1ccc(NC(=S)N2CCC(c3ccc(C)cc3)C2)cc1` (stereo not drawn), the inhibition stood at 60.5%. Consider `COc1ccc(NC(=S)NCCc2ccc(Cl)cc2)c(OC)c1`, for which the inhibition was determined as 41.1%. As to `CC1(C(=O)OCC(=O)c2c[nH]c3ccccc23)CC1(Cl)Cl` (stereo not drawn), the inhibition is -13.4%. For `CN1CCN(C2=Cc3ccccc3Sc3cc(F)ccc32)CC1` the value was 92.9%; for `S=C(Nc1cccc2ccccc12)NC1CCCCC1`, 28.9%; for `CCCCn1c(-c2csc3c2CCC(C)C3)n[nH]c1=S` (stereo not drawn), 42%. For `Cc1ccc(OCCSc2nc(NC(C)C)nc(NC(C)C)n2)cc1` the value was 14.2%; for `S=C(NCCSCc1ccc(Cl)cc1)Nc1ccccc1`, 63.5%. Next, `COc1ccc(C(C)C)cc1S(=O)(=O)N1CCN(c2ccccc2)CC1`: 33.4%; `COCCN1CCN(c2cc(-c3ccccc3)nc3cc(-c4cccc(F)c4)nn23)CC1`: 67.6%; `S=C(Nc1ccccc1Oc1ccccc1)Nc1cccc(Cl)c1Cl`: 3.27%. Regarding `Cc1cccc(NC(=S)NC(C)(C)CC(C)(C)C)c1`, the inhibition was 63.3%. Take `Cc1nc2cc(-c3ccc(Cl)cc3)nn2c(C)c1CCC(=O)NC(C)c1ccc2c(c1)OCCO2` (stereo not drawn): the inhibition is 65.9%. For `Cc1onc(-c2ccccc2)c1C(=O)N/N=C/C(Br)=C/c1ccccc1`, the inhibition is 52.4%. For `CCC(C(=O)Nc1ccc(OC)c(Cl)c1)c1ccccc1` (stereo not drawn), the inhibition is 48.7%. Take `O=C1c2ccccc2-n2c1nc1ccccc1c2=O`: the inhibition was 57.8%.

For the molecule `CC(=O)c1ccc(NC(=S)Nc2ccc(Br)c(Cl)c2)cc1`, the inhibition was found to be 69.2%. As to `Cc1cccc(NC(=S)N=Nc2c(O)[nH]c3ccccc23)c1`, the inhibition is -9.88%. For `COc1ccc(CN(C)C2c3ccccc3-c3ccccc32)cc1` the value was 7.13%. Next, `CCOC(=O)C1CCN(CC(=O)Nc2cc(C)nn2-c2nc3ccccc3s2)CC1`: 8.2%. For `Cc1cc(NCCC(C)C)n2nc(C)c(-c3ccccc3)c2n1` the value was 35.6%; for `CC(C)(C)c1ccc(C(=O)N/N=C2\C3CN4CCN(C3)CC2(c2ccccc2)C4)cc1`, 95%; for `COc1ccc(NC(=O)CN(c2ccc(C)cc2)S(C)(=O)=O)c(OC)c1`, 4.28%. Turning to `CCOC(=O)c1cc(-c2ccc3c(c2)OCO3)nc2onc(C)c12`, the inhibition is -9.81%. Next, `O=C(CCSc1nc(-c2ccco2)cc(C(F)(F)F)n1)N1CCN(c2ccccc2)CC1`: 35%.

For the molecule `On1c(-c2ccc(Cl)cc2)nc2ccccc21`, the inhibition turned out to be 73.3%.

Regarding `CCCc1cc(-c2n[nH]c(=S)n2CC(C)C)cs1`, the inhibition came out at 52.4%. Next, `CC1=NN(C(N)=S)C(=O)C1N=Nc1ccccc1C` (stereo not drawn): 55.1%. In the case of `Cc1ccc(-n2cc(CN(C)Cc3ncc[nH]3)c(-c3cccc(C)c3)n2)cc1`, the inhibition worked out at 40.1%.

Consider `CC(C)(C)CC(C)(C)NC(=O)CSCC(=O)Nc1ccc2ccccc2c1`, for which the inhibition was determined as 57.2%. For `CN1CCC2(CC1)Nc1nc(SCc3ccc(Cl)cc3)nn1C1=C2CN(C)CC1` the value was 4.66%; for `O=C(CSC1=NC2(CCCCCC2)N=C1c1ccccc1)Nc1ccc2c(c1)OCCO2`, 24.6%; for `CC(C)COC(=O)c1cccc2c1-c1ccccc1/C2=N\O`, -1.4%. With `Clc1nssc1=Nc1ccc(Br)cc1`, the inhibition turned out to be 67.4%. Next, `Cc1cc(NC(=O)C2CCCCC2)nc2c1c(=O)oc1ccccc12`: 12.9%. For `COc1ccccc1C1CN(c2ccc(F)cc2F)N=C1c1cccs1` (stereo not drawn) the value was 35.8%.

For the molecule `CNc1oc(C)nc1S(=O)(=O)c1ccc(C)cc1`, the inhibition was -15.8%. Regarding `COc1ccc(/C=N/NC(N)=S)cc1OC(=O)c1cccc2ccccc12`, the inhibition worked out at 26.3%.

`CC(C)c1ccccc1OCC(=O)NC1CCCc2ccccc21` (stereo not drawn): the inhibition is -16.8%. For `Clc1cccc(-c2cc3nc4c(c(N5CCOCC5)n3n2)CCCC4)c1` the value was 68%; for `c1ccc2c(c1)sc1nnnn12`, -1.46%; for `O=C(Nc1ccc(Cl)c(Cl)c1)Nc1ccc(Br)cc1F`, 66.1%.

With `Fc1ccc2c(c1)/C(=N/Nc1ccccn1)CCS2`, the inhibition came out at 48.2%. Take `Cc1ccn2cc(CSc3ccccc3)nc2c1`: the inhibition was 58.4%. Regarding `COc1ccc(OCC(O)CNCc2ccco2)cc1` (stereo not drawn), the inhibition is -3.7%. In the case of `Cc1cccc(C(=O)NC(=S)NNC(=O)COc2ccc(Cl)cc2)c1`, the inhibition was determined as 64%. Next, `CC(=O)C1=C(c2cccc([N+](=O)[O-])c2)N(C(C)=O)n2c(C)nnc2S1`: 37.7%; `COc1cc2c(cc1NS(=O)(=O)N1CCCCC1)oc1ccccc12`: 54.4%; `Cc1c(Cl)cccc1NC(=S)N(Cc1cccs1)C1CCCC1`: 37.6%. Next, `CCCCCOc1ccc(CSCCNC(=S)Nc2ccccc2)cc1`: 5%; `Cc1ccc(C(=O)NC(=S)NCC(=O)c2ccccc2)cc1`: 0.51%; `S=c1[nH]nc(COc2ccccc2)n1/N=C/C(Cl)=C/c1ccccc1`: 39.2%.

For `CCc1ccc(CCC(=O)Nc2ccccc2C(=O)O)o1`, the inhibition was 3.76%. Next, `CC(C)(C)c1ccc(OCCNC(=S)Nc2ccccc2)cc1`: 48.2%; `Cc1cc(N2CCCCC2)n2ncc(-c3ccc(Cl)cc3)c2n1`: 33.6%. As to `Oc1ccccc1Nc1nc(NCc2ccccc2)c2ccccc2n1`, the inhibition was 68.3%. As to `COCCCn1c(SCC(=O)NC(C)(C)C)nnc1-c1ccccc1`, the inhibition is -3.73%. Next, `CC1=NN(C(N)=S)C(=O)C1N=Nc1ccc(C)cc1C` (stereo not drawn): 59.5%; `CCCC1CC(C)(c2csc(Nc3ccc(OCC)cc3)n2)OC1=O` (stereo not drawn): 31.7%; `CC(C)(C)c1ccc(OCc2ccc(C(=O)N/N=C3\CC4CC=CC34)cc2)cc1` (stereo not drawn): 42.8%. For `CCCN(Cc1ccccc1)C(=S)Nc1ccc(SC(F)F)cc1` the value was 19.6%; for `CCOC(=O)c1c(NC(=O)CN2CCN(C(=O)c3ccco3)CC2)sc2c1CCCC2`, 8.35%. Next, `NC(=S)N/N=C1/CCSc2ccc3ccccc3c21`: 38.3%. Take `CCOC(=O)c1sc(NC(=O)Nc2cccc(Cl)c2)cc1C`: the inhibition worked out at 16%. As to `OCCN1CCN(CCCN2c3ccccc3Sc3ccc(Cl)cc32)CC1`, the inhibition was 87.4%. Next, `Cc1[nH]n(C(N)=S)c(=O)c1N=Nc1ccc2ccccc2c1`: 59.4%.

`COc1ccc(/C=N/NC(=O)c2ccoc2C)cc1COc1c(C)cccc1C`: the inhibition came to 81.2%. Regarding `NC(=S)N/N=C/c1ccc(-c2ccc(Cl)c(Cl)c2)o1`, the inhibition is 60.8%.
